Data: patent US10299477B2 (priority 2015, dated 2019)

Experiments:
Type in all cases: in vivo
Botrytis cinerea = experiment: Test Example B: Gray mold on tomato; details: in vivo
Text: [Test Example B] Gray Mold on Tomato
Seeds of a test plant (tomato variety: Oogata Fukuju) were planted followed by cultivating until three to five first leaves (true leaves) appeared.

Alternaia brassicicola = experiment: Test Example C: Alternaria sooty spot on cabbage; details: in vivo
Text: [Test Example C] Alternaria Sooty Spot on Cabbage
Seeds of a test plant (cabbage variety: Shikidori) were planted followed by cultivating until the cotyledons extended.

[1] = system: Blumeria graminis f sp. hordei; experiment: Test Example D: Powdery mildew on barley; details: in vivo
Text: [Test Example D] Powdery Mildew on Barley
After the sprayed dilutions were dried, conidia of Blumeria graminis f sp. hordei were inoculated to the plants by shaking off.

Puccinia recondita = experiment: Test Example E: Brown rust on wheat; details: in vivo
Text: [Test Example E] Brown Rust on Wheat

Plasmopara viticola = experiment: Test Example G: Downy mildew on vine; details: 250 ppm, sprayed 2.5 ml/pot before inoculation; evaluated 7-10 days after inoculation
Text: [Test Example G] Downy Mildew on Vine
Seeds of a test plant (grape variety: Neomuscat) were planted followed by cultivating until three to four first leaves appeared. […] After the sprayed dilutions were dried, a zoosporangia suspension (1-2×10^4 zoosporangia/ml) of Plasmopara viticola was inoculated to the plants by spraying.

Row | SMILES | Test B (control value class, gray mold on tomato) (Botrytis cinerea) | Test C (control value class, Alternaria sooty spot on cabbage) (Alternaia brassicicola) | Test D (control value class, powdery mildew on barley) [1] | Test E (control value class, brown rust on wheat) (Puccinia recondita) | Test G (control value class, downy mildew on vine) (Plasmopara viticola)
1 | CCn1c(-c2c(F)cc(F)cc2F)c(-c2cccc(OC)c2Cl)cc(Cl)c1=O [Compound 619] | H (H shows more than 50% of control values) | H (H shows more than 50% of control values) | H (H shows more than 50% of control values) | H (H shows more than 50% of control values) | L (L shows 50% or less of control values)
2 | CCn1c(-c2c(F)cc(F)cc2F)c(-c2cccc(OC)c2Cl)cc(Br)c1=O [Compound 620] | H (H shows more than 50% of control values) | H (H shows more than 50% of control values) | H (H shows more than 50% of control values) | H (H shows more than 50% of control values) | L (L shows 50% or less of control values)
3 | COc1cc(F)c(-c2c(-c3ccc(F)cc3Cl)cc(C)c(=O)n2C)c(F)c1 [Compound 621] | H (H shows more than 50% of control values) | H (H shows more than 50% of control values) | H (H shows more than 50% of control values) | H (H shows more than 50% of control values) | L (L shows 50% or less of control values)
4 | CCN1C(=O)CCC(c2ccc(Br)cc2Cl)=C1c1c(F)cc(F)cc1F [Compound 622] | L (L shows 50% or less of control values) | H (H shows more than 50% of control values) | H (H shows more than 50% of control values) | H (H shows more than 50% of control values) | L (L shows 50% or less of control values)
5 | CCn1c(-c2c(F)cc(OC)cc2F)c(-c2cc(OC)cc(F)c2Cl)ccc1=O [Compound 623] | H (H shows more than 50% of control values) | H (H shows more than 50% of control values) | H (H shows more than 50% of control values) | H (H shows more than 50% of control values) | L (L shows 50% or less of control values)
6 | CCn1c(-c2c(F)cc(F)cc2F)c(-c2ccc(Br)cc2Cl)ccc1=O [Compound 624] | H (H shows more than 50% of control values) | H (H shows more than 50% of control values) | H (H shows more than 50% of control values) | H (H shows more than 50% of control values) | H (H shows more than 50% of control values)
7 | CCn1c(-c2c(F)cc(F)cc2F)c(-c2ccc(C)cc2Cl)ccc1=O [Compound 626] | H (H shows more than 50% of control values) | H (H shows more than 50% of control values) | H (H shows more than 50% of control values) | H (H shows more than 50% of control values) | H (H shows more than 50% of control values)
8 | CCn1c(-c2c(F)cc(OC)cc2F)c(-c2cc(OC)cc(F)c2Cl)cc(Cl)c1=O [Compound 627] | H (H shows more than 50% of control values) | H (H shows more than 50% of control values) | H (H shows more than 50% of control values) | H (H shows more than 50% of control values) | L (L shows 50% or less of control values)
9 | CCn1c(-c2c(F)cc(F)cc2F)c(-c2ccc(C)cc2Cl)cc(Cl)c1=O [Compound 628] | H (H shows more than 50% of control values) | H (H shows more than 50% of control values) | H (H shows more than 50% of control values) | H (H shows more than 50% of control values) | L (L shows 50% or less of control values)
10 | CCn1c(-c2c(F)cccc2F)c(-c2ccc(F)cc2F)cc(Cl)c1=O [Compound 630] | H (H shows more than 50% of control values) | H (H shows more than 50% of control values) | H (H shows more than 50% of control values) | H (H shows more than 50% of control values) | H (H shows more than 50% of control values)
11 | CCn1c(-c2c(F)cc(F)cc2F)c(-c2cccc(OC)c2Cl)cc(C)c1=O [Compound 632] | H (H shows more than 50% of control values) | H (H shows more than 50% of control values) | H (H shows more than 50% of control values) | H (H shows more than 50% of control values) | L (L shows 50% or less of control values)
12 | CCn1c(-c2c(F)cc(OC)cc2F)c(-c2cccc(OC)c2Cl)ccc1=O [Compound 633] | H (H shows more than 50% of control values) | H (H shows more than 50% of control values) | H (H shows more than 50% of control values) | H (H shows more than 50% of control values) | H (H shows more than 50% of control values)
13 | CCOc1cc(F)c(-c2c(-c3cccc(OC)c3Cl)ccc(=O)n2CC)c(F)c1 [Compound 634] | H (H shows more than 50% of control values) | H (H shows more than 50% of control values) | H (H shows more than 50% of control values) | H (H shows more than 50% of control values) | H (H shows more than 50% of control values)
14 | CCn1c(-c2c(F)cc(F)cc2F)c(-c2cc(F)c(F)cc2F)ccc1=O [Compound 635] | H (H shows more than 50% of control values) | H (H shows more than 50% of control values) | H (H shows more than 50% of control values) | H (H shows more than 50% of control values) | L (L shows 50% or less of control values)
15 | CCn1c(-c2c(F)cc(F)cc2F)c(-c2cc(F)c(F)cc2F)cc(Cl)c1=O [Compound 636] | H (H shows more than 50% of control values) | H (H shows more than 50% of control values) | L (L shows 50% or less of control values) | H (H shows more than 50% of control values) | L (L shows 50% or less of control values)
16 | CCn1c(-c2c(F)cc(OC)cc2F)c(-c2cc(F)c(F)cc2F)cc(Cl)c1=O [Compound 637] | H (H shows more than 50% of control values) | H (H shows more than 50% of control values) | H (H shows more than 50% of control values) | H (H shows more than 50% of control values) | H (H shows more than 50% of control values)
17 | CCn1c(-c2c(F)cc(OC)cc2F)c(-c2cc(F)c(F)cc2F)ccc1=O [Compound 638] | H (H shows more than 50% of control values) | H (H shows more than 50% of control values) | H (H shows more than 50% of control values) | H (H shows more than 50% of control values) | H (H shows more than 50% of control values)
18 | Cn1c(-c2c(F)cc(F)cc2F)c(-c2cc(F)c(F)cc2F)ccc1=O [Compound 639] | H (H shows more than 50% of control values) | H (H shows more than 50% of control values) | H (H shows more than 50% of control values) | H (H shows more than 50% of control values) | H (H shows more than 50% of control values)
19 | CCn1c(-c2c(F)cc(OC)cc2F)c(-c2cccc(OC)c2Cl)cc(Cl)c1=O [Compound 640] | H (H shows more than 50% of control values) | H (H shows more than 50% of control values) | H (H shows more than 50% of control values) | H (H shows more than 50% of control values) | H (H shows more than 50% of control values)
